Among the data in the supplement of paper PMC9446081 are relative growth values, retold here.

SMILES strings stand for the structures. Screen size: about 39,000 compounds; about 220 (0.56%) showed activity. The list shows a part of the results.
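Note: static incubation at 37 °C against the wild-type strain, values averaged over two biological replicates.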

The assay relates to Escherichia coli K-12 BW25113. Kind of assay: relative growth (OD600 normalised to plate interquartile mean) (fraction); higher = less growth inhibition, active = 0.2 or less. Particulars: 50 µM; LB; incubation time: overnight (16-24 h).
In the case of `C[C@@H]1CCCCO[C@@H](CN(C)C(=O)C2CCCCC2)[C@H](C)CN([C@@H](C)CO)C(=O)c2cc(NC(=O)CCCCCC(=O)Nc3ccccc3N)ccc2O1`, the relative growth is inactive: 0.981.
Next, `COCC(=O)N1CC[C@]2(CC1)CN([C@H](CO)c1c2c2ccc(cc2n1C)OC)C(=O)Cc1ccccc1`: inactive: 0.977; `CC(C)=CCC[C@](C)(O[C@@H]1O[C@H](CO)[C@@H](O)[C@H](O)[C@H]1O)[C@H]1CC[C@]2(C)[C@@H]1[C@H](O)C[C@@H]1[C@@]3(C)CC[C@H](O)C(C)(C)[C@@H]3[C@@H](O[C@@H]3O[C@H](CO)[C@@H](O)[C@H](O)[C@H]3O[C@@H]3O[C@@H](C)[C@H](O)[C@@H](O)[C@H]3O)C[C@]12C`: inactive: 1.
To `COCC(=O)NC1CCN(C2CCNCC2)CC1` belongs inactive: 0.993; to `C[C@@H]1CCCCO[C@@H](CN(C)C(=O)NC2CCCCC2)[C@@H](C)CN([C@@H](C)CO)C(=O)c2cc(NS(=O)(=O)c3cccs3)ccc2O1`, inactive: 0.967; to `COC(=O)c1c(OC)cc2c(c1C)Oc1c(Cl)c(O)c(Cl)c(C)c1C(=O)O2`, inactive: 0.935.
Next, `CC(=O)N1CCC(C(=O)O)CC1`: inactive: 1.02.
In the case of `C[C@@H]1CN([C@@H](C)CO)C(=O)c2cc(NC(=O)c3ccncc3)ccc2O[C@@H]1CN(C)S(=O)(=O)c1ccccc1`, the relative growth is inactive: 1.01.
Next, `C[C@@H]1CCCCO[C@H](CN(C)S(=O)(=O)c2ccc(Cl)cc2)[C@H](C)CN([C@@H](C)CO)C(=O)c2cc(NS(=O)(=O)c3ccc(Cl)cc3)ccc2O1`: inactive: 1.02; `Cc1noc(C)c1NC(=O)N(C)C[C@H]1Oc2c(NC(=O)c3ccc(-c4nccs4)cc3)cccc2C(=O)N([C@@H](C)CO)C[C@@H]1C`: inactive: 0.986.
To `C[C@@H]1CCCCO[C@@H](CN(C)C(=O)Nc2ccc3c(c2)OCO3)[C@@H](C)CN([C@@H](C)CO)C(=O)c2cc(NC(=O)Nc3ccccc3)ccc2O1` belongs inactive: 1.04; to `C[C@@H]1CN([C@@H](C)CO)C(=O)c2cc(-c3ccc(C#N)cc3)cnc2O[C@H]1CN(C)C(=O)Nc1ccc(C(F)(F)F)cc1`, inactive: 0.998.
On to `CO[C@H]1CN(C)C(=O)c2ccc(NS(C)(=O)=O)cc2OC[C@@H](C)N(C(=O)CN(C)C)C[C@H]1C`, for which the relative growth was inactive: 0.992.
Consider `O=C(C[C@@H]1CC[C@H]2[C@@H](COC[C@H](O)CN2C(=O)C2CC2)O1)NCc1ccncc1`, for which the relative growth is inactive: 1.
For the molecule `Cc1ccc(S[C@]2(C(=O)NCC(F)(F)F)CC(=O)N(Cc3ccccc3C(F)(F)F)[C@@H]2c2ccc(CO)cc2)cc1`, the relative growth is inactive: 1.01.
Next, `C[C@H]1CN([C@@H](C)CO)C(=O)c2ccccc2-c2ccccc2CO[C@H]1CN(C)S(=O)(=O)c1ccc(C(F)(F)F)cc1`: inactive: 1.04.
Consider `CNC(=O)[C@@H](NC(=O)[C@H](CC(C)C)[C@H](O)C(=O)NO)C(C)(C)C`, for which the relative growth was inactive: 0.916.
With `C[C@H]1CCCCO[C@H](CN(C)C(=O)C2CCCCC2)[C@@H](C)CN([C@@H](C)CO)C(=O)c2cc(NC(=O)Nc3ccc(F)cc3)ccc2O1`, the relative growth is inactive: 0.976.
As to `C[C@@H]1CN([C@@H](C)CO)C(=O)c2cc(NC(=O)Nc3ccc(C(F)(F)F)cc3)ccc2O[C@@H](C)CCCCO[C@@H]1CN(C)C(=O)C1CCCCC1`, the relative growth is inactive: 1.07.
Next, `COCCOC(=O)N1C(=O)[C@@]2(c3ccccc31)[C@H](C(=O)N1CCCCCCC1)[C@H]1C(=O)O[C@H](c3ccccc3)[C@H](c3ccccc3)N1[C@@H]2c1ccc(OCCO)cc1`: inactive: 1.05; `CO[C@@H]1CN(C)C(=O)c2ccc(NC(=O)C3CC3)cc2OC[C@H](C)N(C(=O)C2CCOCC2)C[C@H]1C`: inactive: 0.966; `COc1ccc(NC(=O)Nc2ccc3c(c2)C(=O)N([C@H](C)CO)C[C@@H](C)[C@H](CN(C)Cc2ccncc2)OCCCC[C@@H](C)O3)cc1`: inactive: 1.01.
For the molecule `C[C@@H]1CN([C@@H](C)CO)C(=O)c2cccc(NS(C)(=O)=O)c2O[C@@H]1CN(C)S(=O)(=O)c1ccccc1`, the relative growth is inactive: 0.99.
To `O=C(C[C@H]1CC[C@@H]2[C@H](COC[C@@H](O)CN2C(=O)Nc2ccc(C(F)(F)F)cc2)O1)NCc1ccncn1` belongs inactive: 1.
For `C[C@@H]1CN([C@H](C)CO)C(=O)c2cc(NS(=O)(=O)c3ccc(Cl)cc3)ccc2O[C@@H]1CN(C)S(=O)(=O)c1cn(C)cn1`, the relative growth is inactive: 1.
To `CCCN(C)C[C@@H]1OCCCC[C@H](C)Oc2ccc(NC(=O)Cc3ccccc3)cc2C(=O)N([C@@H](C)CO)C[C@@H]1C` belongs inactive: 0.982; to `COC(=O)C[C@H]1CC[C@@H]2[C@H](COC[C@@H](O)CN2S(=O)(=O)c2cn(C)cn2)O1`, inactive: 0.966.
Consider `C[C@H]1CN([C@@H](C)CO)C(=O)c2c(c3ccccc3n2C)-c2ccccc2CO[C@@H]1CN(C)Cc1ccc(F)cc1`, for which the relative growth was inactive: 0.966.
Next, `COc1ccc(S(=O)(=O)N2C[C@@H](O)COC[C@H]3O[C@H](CC(=O)NCCN4CCCCC4)CC[C@@H]32)cc1`: inactive: 0.996; `CN(C)CCCCNC(=O)[C@H]1C[C@H]2C(=O)N[C@@H](CCCCN)C(=O)N2[C@H]1c1ccc(O)cc1`: inactive: 0.971; `COc1cccc(S(=O)(=O)N[C@@H]2C=C[C@@H](CC(=O)NC3CCC3)O[C@H]2CO)c1`: inactive: 1.01.
As for `C[C@@H]1CN([C@H](C)CO)C(=O)Cc2cc(NC(=O)C3CCCCC3)ccc2O[C@H]1CN(C)Cc1ccc(C(=O)Nc2ccccc2N)cc1`, the relative growth is inactive: 0.979.
On to `CO[C@@H]1CN(C)C(=O)c2cc(NS(=O)(=O)CC(F)(F)F)ccc2OC[C@@H](C)N(C(=O)c2ccc3c(c2)OCO3)C[C@H]1C`, for which the relative growth is inactive: 0.937.
Next, `CO[C@@H]1CCN(C(=O)CS(C)(=O)=O)[C@@H]2CCO[C@H]21`: inactive: 1.03.
To `C[C@H](CO)N1C[C@H](C)[C@@H](CN(C)C(=O)C2CCCCC2)OCCCC[C@H](C)Oc2ccc(NC(=O)Nc3cccc4ccccc34)cc2C1=O` belongs inactive: 1.04.
Next, `C[C@H]1CCCCO[C@H](CN(C)CC2CCCCC2)[C@@H](C)CN([C@@H](C)CO)C(=O)c2cc(NS(=O)(=O)c3ccc(F)cc3)ccc2O1`: inactive: 0.966.
